In the supplement of paper PMC10126150:
Sequences with one replicate were seen in a single cluster, so their values are uncertain.

System: ATP
Experiment: switch fluorescence ratio, 500 uM ATP over buffer (Cy3 cluster intensity, sum of 5 cycles each) (fold (ratio)); higher = stronger signal-on switching upon ATP binding; sequences stand for … in TCGTCGGCAGCGTCAGATGTGTATAAGAGACAGTTTTTTTTTTTTTTTTTTTTTTTTT…TC
Conditions: aptamer strand: ATP DNA aptamer (quencher-CACCTGGGGGAGTATTGCGGAGGAAGG + anchor), 100 nM annealed; ATP concentration: 500 uM; one replicate
Procedure, shortened: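 Clusters with intensities outside 100-1000 RFU were excluded. The remaining Cy3-labelled switching-strand clusters on a modified Illumina MiSeq flow-cell had been annealed to 100 nM quencher-labelled ATP aptamer and imaged in selection buffer, then after 15 min with 500 uM ATP at 22 °C, for five cycles separated by NaOH stripping and re-annealing. The fluorescence ratio, averaged per switch-domain sequence, is each cluster's summed target-cycle Cy3 intensity over its summed buffer-cycle Cy3 intensity.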
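Also: ATP exposure 15 min at 22 °C before imaging.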

TTTATTCGAC
switch fluorescence ratio: 1.03

GGGTCTGACG
switch fluorescence ratio: 0.996

TACATGTGTA
switch fluorescence ratio: 1.02

GCAATCTCCT
switch fluorescence ratio: 4.36

TAAGAAATGC
switch fluorescence ratio: 1.24

TTTAAATATC
switch fluorescence ratio: 1.03

ACGGCTTAAT
switch fluorescence ratio: 1.05

ACATGTGTCT
switch fluorescence ratio: 1

GGTTATGCGA
switch fluorescence ratio: 1.02

TCTCAAAGAC
switch fluorescence ratio: 1.54

CTCAGGGGTA
switch fluorescence ratio: 1.12

TACAGAGGA
switch fluorescence ratio: 1.03

GGCAGCAACG
switch fluorescence ratio: 1.09

TATACGGCGG
switch fluorescence ratio: 1.02

CCGAATCTTA
switch fluorescence ratio: 1.07

GAGTTTGAGA
switch fluorescence ratio: 0.961

GCATGTGCTT
switch fluorescence ratio: 1.02

CCCCCCCGGT
switch fluorescence ratio: 1.28

CTATACTACG
switch fluorescence ratio: 1.08

TTTACTGACG
switch fluorescence ratio: 1.12

CGATATTGCG
switch fluorescence ratio: 1.03

GGTGAATAAG
switch fluorescence ratio: 1.05

ACGATTTACC
switch fluorescence ratio: 1.17

TTACTACCCG
switch fluorescence ratio: 1.11

TGGCAGATTT
switch fluorescence ratio: 1.02

ACTGATAATG
switch fluorescence ratio: 1.04

TAGGTTAAGT
switch fluorescence ratio: 1.01

AGGCGTAGAC
switch fluorescence ratio: 0.985

TGGTGTATCA
switch fluorescence ratio: 0.988

ACGGGGGCAC
switch fluorescence ratio: 0.983

ACTAGATGGC
switch fluorescence ratio: 1.03

ACCGTCCCTA
switch fluorescence ratio: 1.07

CCACGCTTCG
switch fluorescence ratio: 1.04

ACTATAGGAT
switch fluorescence ratio: 1.02

GCATTTCGTT
switch fluorescence ratio: 1.02

TTCGTACGTT
switch fluorescence ratio: 1.01

TCCGAAGGTG
switch fluorescence ratio: 1.07

TCTGGTGTCA
switch fluorescence ratio: 1.01

TTCGAAAGGA
switch fluorescence ratio: 0.98

CCGGCTACTT
switch fluorescence ratio: 1.05

ATGTATCTGC
switch fluorescence ratio: 0.917

AGCTCTCTAG
switch fluorescence ratio: 0.999

TAAATTCCTG
switch fluorescence ratio: 1.02

CATATATTAA
switch fluorescence ratio: 0.996

TTGCTGGGTA
switch fluorescence ratio: 0.946

CCTCGCATTT
switch fluorescence ratio: 1.91

CTGGGATGCG
switch fluorescence ratio: 1.04

ATTAAACCTT
switch fluorescence ratio: 1.1

TTGGGTATCA
switch fluorescence ratio: 0.962

ATTCGCAT
switch fluorescence ratio: 1.47

CTAAAAAGGG
switch fluorescence ratio: 0.995

AGGCTTGTCT
switch fluorescence ratio: 1.05

TCAATCTGGT
switch fluorescence ratio: 1.08

CAGTTTCTGC
switch fluorescence ratio: 0.956

CTGTTCGTTT
switch fluorescence ratio: 0.964

CTCGTTAGTA
switch fluorescence ratio: 1.01

GTTTAATCAA
switch fluorescence ratio: 0.994

TTGGATCTTT
switch fluorescence ratio: 1.03

ATGAGGATCC
switch fluorescence ratio: 1.03

GTCTAAAGGT
switch fluorescence ratio: 0.95

AAAGGTGTTA
switch fluorescence ratio: 1.02

CGTTTTGT
switch fluorescence ratio: 1.01

CCGCGCTAGT
switch fluorescence ratio: 1.64

TTATTTAACT
switch fluorescence ratio: 0.985

TTCCCCATT
switch fluorescence ratio: 1.13

ACGGGCGGGT
switch fluorescence ratio: 1.14

GCAACTCCAC
switch fluorescence ratio: 1.96

AAACAGTGCG
switch fluorescence ratio: 1.01

GTCTCGCATG
switch fluorescence ratio: 1.1

TCGAGGGCGT
switch fluorescence ratio: 0.973

TCTTGACACA
switch fluorescence ratio: 1.04

ACCAACGAGA
switch fluorescence ratio: 1.28

GCTGGCAAAG
switch fluorescence ratio: 1

GTGGTTATCT
switch fluorescence ratio: 0.999

CGCAGGTGCT
switch fluorescence ratio: 3.56

AATTCTTCAT
switch fluorescence ratio: 0.95
